Test results taken from PubChem BioAssay AID1671194 (National Center for Advancing Translational Sciences (NCATS), 2021).
In all, about 140,000 compounds went through this assay and about 240 (0.17%) were called active. This list was built around the results that the source calls inconclusive (neither active nor inactive); the mix of calls is not that of the screen. Calls come from the whole dose curve; as a rule, active = well fitted inhibition curve with a large enough effect; inconclusive = small, poorly fitted or top-dose-only effect; inactive = no such curve, though single readings can be large or run the other way. A potency beside an inconclusive call is a rough fit, not a confirmed value.

Assay: Primary qHTS assay for inhibitors of alpha-synuclein gene (SNCA) expression; note: nearly all actives have a fitted effect of over 45% in size;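 for activity change, negative = inhibition: plate controls were DMSO cells for no effect and cell-free wells for full effect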
Conditions: HEK-293 SNCA-luciferase knock-in, luminescence, 24 h; activity change, negative = inhibition: at 57.2 µM (top of the series) unless noted
Potency is the fitted concentration of half-maximal effect; tags give direction and shape of the fitted curve.

Compound | activity change, negative = inhibition | Potency
O=C(N[C@H]1C[C@H]2C(=O)NC[C@@H](CCC(=O)N3CCN(c4ccccn4)CC3)N2C1)c1ccccc1 | inactive: 7.24% | 
COc1ccc(Nc2cnc3ccc(-c4ccc(OC)c(OC)c4)nn23)cc1 | inactive: 0.288% [at 87.6 µM] | 
O=C(NCc1nnc2c(-c3nc(C4CC4)no3)cccn12)c1cccc(Cl)c1 | inactive: -2.29% | 
COc1ccccc1-c1cccc(C(=O)N2CCC[C@H]2C(=O)NCC(F)(F)F)c1 | inactive: -8.62% | 
Cn1c(=O)nc2n(-c3ccc(Cl)c(Cl)c3)c3cc(Cl)ccc3cc-2c1=O |  | inconclusive: 39.8 µM [inhibitor, single point]
CCCn1ncc(CNC2CC(=O)N(Cc3ccccc3C(F)(F)F)C2)c1C (configuration not stated) | inactive: 19.5% | 
O=C(Nc1nc2c(s1)CCC2)C1CC(=O)N(c2n[nH]c3cccc(F)c23)C1 (configuration not stated) |  | inconclusive: 8.91 µM [inhibitor, partial curve]
O=C(NCc1cccc(Cl)c1)C1CCN(c2ccnc3ccnn23)CC1 | inactive: -29.7% | 
Cc1ccc(C(C)C)c(OCC(=O)N2CCC(c3nc4ccccc4o3)CC2)c1 |  | inconclusive: 39.8 µM [inhibitor, single point]
CSc1ccccc1-c1nc(C2CCOC2)no1 (configuration not stated) | inactive: 59.2% | 
COc1ccc2[nH]cc(CCNc3ncncc3-c3ccc(N(C)C)cc3)c2c1 |  | inconclusive: 35.5 µM [inhibitor, single point]
CN(C)c1nc2c(c(=O)[nH]1)CCN(Cc1ccc(Cl)c(F)c1)CC2 | inactive: 16.3% | 
Cc1cccc(-n2nc(-c3c(C)nc4scc(CC(=O)NC5CCCCC5)n4c3=O)cc2C)c1C |  | inconclusive: 1.41 µM [inhibitor, full curve]
CC(C)c1ccc(CN2C[C@@H]3C(=O)N(CCc4ccccc4)C(=O)[C@@H]3C2)cc1 |  | inconclusive: 39.8 µM [inhibitor, single point]
CCNC(=O)c1ccc2c(c1)C1(CCCN(C)C1)CN2C (configuration not stated) | inactive: -26.8% [at 87.6 µM] | 
CNC(=O)[C@@H]1CN(C(=O)c2ccn(C)n2)C[C@H]1COC | inactive: -5.81% | 
COc1ccc(-c2noc(-c3nnn4c3COC(c3ccc(OC)cc3)C4)n2)cc1 (configuration not stated) |  | inconclusive: 6.31 µM [inhibitor, single point]
CC(=O)N1CC2(CCCN(CC3CC3)C2)Cc2ccccc21 (configuration not stated) | inactive: -19.2% | 
CC(C)CCn1c(CN2CCN(C(C)C)C(CCO)C2)nc2ccccc21 (configuration not stated) |  | inconclusive: 12.6 µM [inhibitor, partial curve, poor fit]
Cc1ccc(-c2cc3c(=O)n(CCNC(=O)c4cccc(N(C)C)c4)ccn3n2)cc1C | inactive: 99.3% | 
COc1ccc(-n2nc(C3CCCN(C(=O)Nc4ccc(Cl)cc4)C3)[nH]c2=O)cc1 (configuration not stated) | inactive: 23.8% | 
COc1ccc(Cn2c(=O)c(C(=O)N3CCN([S+](C)(=O)[O-])CC3)nc3cccnc32)cc1 |  | inconclusive: 7.94 µM [inhibitor, single point]
COc1ccc(Nc2ccnc(N3CCC(N[S+](=O)([O-])c4cccs4)CC3)n2)cc1 | inactive: 5.68% | 

Compound | activity change, negative = inhibition | Potency
CCn1c(CO)nnc1C1CC(NC(=O)Cn2ncc3ccccc32)C1 (configuration not stated) | inactive: 0.891% | 
CC1=C[C@@H](CNC(=O)c2ccc(C#N)cc2)[C@H](C(C)C)C[C@H]1Cc1nnc(-c2ccncc2)o1 |  | inconclusive: 20 µM [inhibitor, single point]
CCNc1cc(N2CCC(CCC(=O)NCC3CC3)CC2)ncn1 |  | inconclusive: 1.58 µM [inhibitor, full curve, poor fit]
COc1ccccc1CNC(=O)C[C@@H]1[C@H](O)CCC2[C@](C)(CO)[C@H](OC(=O)NC(C)C)CC[C@]21C (some centres not stated) | inactive: 30.8% | 
Cn1nccc1-c1cc2c(ccn2C)c(C(=O)NCc2cccnc2)n1 | inactive: 10.2% [at 87.6 µM] | 
Cc1cc(C)n(-c2ccc(C(=O)N[C@H]3C[C@H]4C(=O)NCC(=O)N4C3)cc2)n1 |  | inconclusive: 39.8 µM [inhibitor, single point]
O=C(c1cnn2ccccc12)N1CCC(Cc2cccc(CO)c2)C1 (configuration not stated) |  | inconclusive: 2.51 µM [inhibitor, full curve, poor fit]
CCCNC(=O)c1cccc2c1CCN2C(=O)Nc1ccc(OC)cc1 |  | active: 28.2 µM
CCOc1cc(=O)n2c(c1C(=O)Nc1cccc(C#N)c1)CCCC2 |  | inconclusive: 12.6 µM [inhibitor, partial curve, poor fit]
Cc1nn(C(C)C(=O)N2CCN(c3ccc(Cl)cc3)CC2)c(=O)c2cc3occc3n12 (configuration not stated) |  | inconclusive: 39.8 µM [inhibitor, single point]
c1ccc(CN2CCNc3cnc(-c4ccc(N5CCOCC5)cc4)cc3C2)cc1 |  | inconclusive: 56.2 µM [inhibitor, single point]
Cc1cc(Cn2cc3c4c(cccc42)[C@H](CC(C)C)N[C@H](C(=O)NCC2CC2)C3)no1 |  | inconclusive: 31.6 µM [inhibitor, partial curve, poor fit]
COc1ccc(N2CC(c3noc(-c4cc(OC)cc(OC)c4)n3)CC2=O)cc1 (configuration not stated) | inactive: -2.26% | 
CC(C)C1CN(C(=O)CCn2ccc(=O)[nH]c2=O)CCC(=O)N1CC1CC1 (configuration not stated) |  | inconclusive: 31.6 µM [inhibitor, partial curve, poor fit]
CCN(CCNC(=O)C1CCCCC(=O)N1C)Cc1ccccc1 (configuration not stated) |  | inconclusive: 39.8 µM [inhibitor, single point]
CN1CC2(CCN(C(=O)c3cccnc3)CC2)CC1C(=O)N1CCOCC1 (configuration not stated) |  | inconclusive: 22.4 µM [inhibitor, single point]
COC(=O)c1ccc(CNC(=O)CC2c3cccnc3C(=O)N2c2c(Cl)cccc2Cl)cc1 (configuration not stated) | inactive: -8.44% [at 25.6 µM] | 
COCCN1CCCC(c2[nH]ccc2C(=O)NCCn2cccn2)C1 (configuration not stated) |  | inconclusive: 35.5 µM [inhibitor, partial curve, poor fit]
CSc1ccc(/C=C/c2nc3ccccc3n2S(=O)(=O)c2cccc(Cl)c2)cc1 |  | inconclusive: 7.08 µM [inhibitor, full curve, poor fit]
Cc1ccc2c(c1)c(=O)c(C(=O)c1ccc3c(c1)OCO3)cn2Cc1ccc(Cl)cc1 |  | inconclusive: 11.2 µM [inhibitor, single point]
COc1cccc(CNC(=O)c2cn3cc(-c4cccnc4)sc3n2)c1 | inactive: 18.8% | 
CCc1cc(N2CCC3(CCCN(C)C3=O)C2)nc(N2CCCC2)n1 (configuration not stated) |  | inconclusive: 39.8 µM [inhibitor, single point]
CCOc1ccc(CN2C(=O)c3ccccc3Sc3ccc(C(=O)O)cc32)cc1 |  | inconclusive: 39.8 µM [inhibitor, single point]

Compound | activity change, negative = inhibition | Potency
O=C1NCc2ccccc2CC12CCCN2Cc1ccc(Br)cc1 (configuration not stated) | inactive: -14.9% | 
CCN1CCN(CCNC(=O)c2cc(-c3ccc(C)cc3)cn2C)CC1 |  | inconclusive: 6.31 µM [inhibitor, single point]
O=C(/C=C\n1cnc(-c2cc(C(F)(F)F)cc(C(F)(F)F)c2)n1)NNc1cnccn1 |  | inconclusive: 0.679 µM [inhibitor, full curve]
COc1ccc(CNC(=O)CCCn2nc(C)c3c(C)n(-c4ccccc4)nc3c2=O)cc1 |  | inconclusive: 7.94 µM [inhibitor, partial curve, poor fit]
COc1ccc(C(=O)N2CCCN(c3cc(-c4ccc(F)cc4)[nH]n3)CC2)c(C)c1 |  | inconclusive: 44.7 µM [inhibitor, partial curve, poor fit]
O=C(Nc1cccc(F)c1)C1CCN(S(=O)(=O)c2cccc3nsnc23)CC1 |  | inconclusive: 0.562 µM [inhibitor, full curve]
O=C1[C@@H]2C[C@@H](CN2C(=O)c2ccc(F)cc2)Oc2ccccc2N1Cc1ccc(OC(F)(F)F)cc1 | inactive: -29.2% | 
CCNc1cc(N2CCC(CCC(=O)NC(CC)CC)CC2)ncn1 |  | inconclusive: 12.6 µM [inhibitor, partial curve, poor fit]
CNC(=O)CN1CCCCC1C(=O)Nc1cccc(-c2cccc(OC)c2)c1 (configuration not stated) |  | inconclusive: 8.91 µM [inhibitor, full curve]
COCCNC(=O)c1nc(-c2cccc(C(F)(F)F)c2)c2ccccn12 | inactive: 6.81% | 
COc1ccc(-n2c(=O)c3c(n2Cc2ccccc2)CN(C(=O)c2ccnn2C)CC3)cc1 | inactive: 21% | 
COc1ccccc1-c1cccc(CN2CCCC(C(=O)N3CCC(c4ccccc4)CC3)C2)c1 (configuration not stated) | inactive: -11.2% | 
O=C(CCCc1nc(-c2ccncc2)no1)N1CCCC2(CCNCC2)CC1 |  | inconclusive: 10 µM [inhibitor, single point]
COc1cccc(C(=O)NC2CCN(C(=O)c3ccc(-c4cncnc4)cc3)CC2)c1 |  | inconclusive: 39.8 µM [inhibitor, single point]
CCOC(=O)c1c(C)[nH]c(C)c1S(=O)(=O)N1CCN(c2cccc(C(F)(F)F)c2)CC1 |  | inconclusive: 39.8 µM [inhibitor, single point]
O=C1c2[nH]nc(-c3ccccc3O)c2C(c2cccc(OCc3ccccc3)c2)N1CCO (configuration not stated) |  | inconclusive: 3.55 µM [inhibitor, full curve]
Clc1ccc(C(c2ccccc2)c2c[nH]c3ccccc23)s1 (configuration not stated) |  | inconclusive: 28.2 µM [inhibitor, single point]
COc1ccc(C(=O)N2CCC[C@@]3(CCN(C(=O)Nc4ccccc4)C3)C2)cc1 |  | inconclusive: 1.41 µM [inhibitor, full curve, poor fit]
COc1cc(OC)cc(-c2cc3nc(C)c(CCC(=O)NCc4ccc(Cl)cc4)c(C)n3n2)c1 |  | inconclusive: 1.78 µM [inhibitor, partial curve, poor fit]
O=c1[nH]c(N2CCOCC2)nc2c1CCN(Cc1cccc(Cl)c1F)CC2 | inactive: -29.2% | 
COc1cccc(CNC(=O)c2ccc3nc(-c4ccnc(Cl)c4)oc3c2)c1 | inactive: 8.51% | 
